From ChEMBL document CHEMBL1201862, “PubChem BioAssay data set” (2004)
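Values below derive from 48-hour exposures of cells grown in 96-well plates, with endpoints linearly interpolated between the two concentrations bracketing the appropriate inhibition level. Here, GI50 denotes the concentration required for 50% inhibition of growth.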 Activity calls are given as the source filed them. Rule as the data show it: active = GI50 up to about 1.1 µM and inactive = higher.

Each compound was assayed on NCI-H322M (assay: NCI-60 cell line screen, 48 h).
`COc1ccc(CCN2C(=O)C=CC2=O)cc1OC` was tested, and the GI50 was inactive: 17.7 µM. `C(=C\c1ccc2ccccc2c1Nc1ccccc1)/c1ccccc1` was tested, and the GI50 was inactive: 56.4 µM. With `c1ccc2oc(-c3ccc(-c4nc5ccccc5o4)c4c3CC4)nc2c1` the GI50 was inactive: > 100 µM. `CC1(C)CC2=C(Sc3ccccc3N2)C(=O)C1C(=O)C(=O)Nc1cccc([N+](=O)[O-])c1` (configuration not stated) was tested, and the GI50 was inactive: > 100 µM. For `C=C(C)C1CCC2(C)CC1c1c(c(C)cc3c1[nH]c1ccccc13)O2` (configuration not stated), the GI50 was inactive: > 25 µM. `O=C(CC1C(=O)Nc2ccccc2S1(=O)=O)Nc1cccc(Cl)c1` (configuration not stated) was tested, and the GI50 was inactive: 34.7 µM. In the case of `COc1cccc(CCn2c(N)c(-c3ccccc3)c3ccc([N+](=O)[O-])cc3c2=O)c1`, the GI50 is reported as inactive: 3.02 µM. With `COc1ccc(CCNC(=O)CCCCCO)cc1OC` the GI50 was inactive: > 100 µM. `c1ccc(-c2nc3ccccc3n3nnnc23)cc1` was tested, and the GI50 was inactive: > 100 µM. In the case of `O=C(Cn1c2ccc(Br)cc2c2nc3ccccc3nc21)NNC(=S)NC1CCCCC1`, the GI50 is reported as inactive: 21.9 µM. In the case of `Cn1c(=O)ccc2cc(C(=O)c3ccccc3)ccc21`, the GI50 is reported as inactive: 63.5 µM. For `COCn1c2ccc(OC(C)=O)cc2c2c(=O)oc(N(C)C)nc21`, the GI50 was inactive: > 100 µM. For `CSC12c3cc(C)n(-c4ccc([N+](=O)[O-])cc4)c3CC(C)(C)CN1C(=O)C2Oc1ccccc1` (configuration not stated), the GI50 was inactive: 27.9 µM. In the case of `O=C(Nc1nc2ncn(CCNCCn3cnc4nc(NC(=O)c5ccccc5)[nH]c(=O)c43)c2c(=O)[nH]1)c1ccccc1`, the GI50 is reported as inactive: > 100 µM. `NC(=O)CN(CC(N)=O)C(N)=O` was tested, and the GI50 was inactive: > 100 µM. `Cc1cc2c(C=O)n[nH]c2c(C#N)c1C` was tested, and the GI50 was inactive: > 100 µM. With `COc1ccc(N2C(=O)/C(=C\c3ccccc3)SC2c2cc(OC)c(OC)c(OC)c2)cc1` (configuration not stated) the GI50 was inactive: 50.8 µM. For `CC1CNC(c2ccc(CN3CCC(C4CCN(Cc5ccc(C6=NC(C)CN6)cc5)CC4)CC3)cc2)=N1` (configuration not stated), the GI50 was inactive: 23.6 µM. For `O=C1NI(C#Cc2ccccc2)c2ccccc21`, the GI50 was inactive: > 100 µM. `N#CC(NNC(=O)Cc1ccccc1)c1c(O)ccc2ccccc12` (configuration not stated) was tested, and the GI50 was inactive: 4.19 µM. With `[N-]=[N+]=NCC(O)Cn1cnc2c(NC(=O)c3ccccc3)ncnc21` (configuration not stated) the GI50 was inactive: > 100 µM. In the case of `O=S(=O)(c1ccc(NC(=S)N/N=C/c2ccccc2O)cc1)N1CCCCC1`, the GI50 is reported as active: < 0.0312 µM. With `CCOc1ccc(N/C(=C(/C(Cl)=C(/Cl)Nc2ccccc2)[N+](=O)[O-])n2nnc3ccccc32)cc1` the GI50 was inactive: 25.7 µM. In the case of `S=c1[nH]c(=S)c2cc(Sc3ccc4[nH]c(=S)[nH]c(=S)c4c3)ccc2[nH]1`, the GI50 is reported as inactive: 47 µM. `COC(=O)c1c(O)ccc2c1c1c(n2Cc2ccc(OC)cc2)C(=O)c2ccccc2C1=O` was tested, and the GI50 was inactive: 40.5 µM. With `CC(=O)Nc1ccccc1[S+]([O-])c1ccccc1` (configuration not stated) the GI50 was inactive: > 100 µM. With `c1ccc(-c2cc(-c3cc(-c4ccccc4)n(-c4ccccc4)n3)nn2-c2ccccc2)cc1` the GI50 was inactive: > 100 µM. For `Cc1cc(/N=C/c2ccc(F)cc2)n(-c2ccccc2)n1`, the GI50 was inactive: > 100 µM. For `Nc1nc(Cl)c2nnn(CC3CCC(CO)C3)c2n1` (configuration not stated), the GI50 was inactive: > 100 µM. For `COc1cccc2c1-c1ccccc1[C@H](Nc1ccccc1)[C@@]2(C)O`, the GI50 was inactive: 6.41 µM. For `O=C1CNS(=O)(=O)N1`, the GI50 was inactive: > 100 µM. With `CC(C)NCCCC(C)Nc1ccnc2ccc3nn(C)nc3c12` (configuration not stated) the GI50 was inactive: 40.6 µM. For `Clc1ccc2nc(-c3ccccc3)nc(Cl)c2c1`, the GI50 was inactive: 57.1 µM. In the case of `CN(C)c1c(C2CC(O)C(CO)O2)c(=O)c1=O` (configuration not stated), the GI50 is reported as inactive: > 100 µM. `N#C/N=C(\NCCc1c[nH]c2ccccc12)NCc1ccccc1` was tested, and the GI50 was inactive: > 100 µM. For `Cc1ccc(C)c(NC(=O)CC/C(=N\NC(=O)c2c(O)ccc3ccccc23)C(C)C(=O)c2ccc(O)cc2)c1` (configuration not stated), the GI50 was inactive: 41.1 µM. In the case of `O=C(Nc1ccccc1)c1cc2cc(CCl)ccc2oc1=O`, the GI50 is reported as inactive: > 100 µM.
